Data reported in paper PMC4336329 (PLoS ONE, 2015).
Out of some 310,000 compounds screened, about 14,000 (4.5%) showed an effect of 50% or more. Effects have a minus sign here. This is one part of the list.

target: human ether-à-go-go-related gene (hERG) potassium channel (human, UniProt Q12809); assay: primary screen, population patch clamp on CHO cells stably expressing hERG
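Also: peak tail current of the secondary pulse compared with the same well before compound.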

Sequence of human ether-à-go-go-related gene (hERG) potassium channel (Q12809 whole entry, looked up): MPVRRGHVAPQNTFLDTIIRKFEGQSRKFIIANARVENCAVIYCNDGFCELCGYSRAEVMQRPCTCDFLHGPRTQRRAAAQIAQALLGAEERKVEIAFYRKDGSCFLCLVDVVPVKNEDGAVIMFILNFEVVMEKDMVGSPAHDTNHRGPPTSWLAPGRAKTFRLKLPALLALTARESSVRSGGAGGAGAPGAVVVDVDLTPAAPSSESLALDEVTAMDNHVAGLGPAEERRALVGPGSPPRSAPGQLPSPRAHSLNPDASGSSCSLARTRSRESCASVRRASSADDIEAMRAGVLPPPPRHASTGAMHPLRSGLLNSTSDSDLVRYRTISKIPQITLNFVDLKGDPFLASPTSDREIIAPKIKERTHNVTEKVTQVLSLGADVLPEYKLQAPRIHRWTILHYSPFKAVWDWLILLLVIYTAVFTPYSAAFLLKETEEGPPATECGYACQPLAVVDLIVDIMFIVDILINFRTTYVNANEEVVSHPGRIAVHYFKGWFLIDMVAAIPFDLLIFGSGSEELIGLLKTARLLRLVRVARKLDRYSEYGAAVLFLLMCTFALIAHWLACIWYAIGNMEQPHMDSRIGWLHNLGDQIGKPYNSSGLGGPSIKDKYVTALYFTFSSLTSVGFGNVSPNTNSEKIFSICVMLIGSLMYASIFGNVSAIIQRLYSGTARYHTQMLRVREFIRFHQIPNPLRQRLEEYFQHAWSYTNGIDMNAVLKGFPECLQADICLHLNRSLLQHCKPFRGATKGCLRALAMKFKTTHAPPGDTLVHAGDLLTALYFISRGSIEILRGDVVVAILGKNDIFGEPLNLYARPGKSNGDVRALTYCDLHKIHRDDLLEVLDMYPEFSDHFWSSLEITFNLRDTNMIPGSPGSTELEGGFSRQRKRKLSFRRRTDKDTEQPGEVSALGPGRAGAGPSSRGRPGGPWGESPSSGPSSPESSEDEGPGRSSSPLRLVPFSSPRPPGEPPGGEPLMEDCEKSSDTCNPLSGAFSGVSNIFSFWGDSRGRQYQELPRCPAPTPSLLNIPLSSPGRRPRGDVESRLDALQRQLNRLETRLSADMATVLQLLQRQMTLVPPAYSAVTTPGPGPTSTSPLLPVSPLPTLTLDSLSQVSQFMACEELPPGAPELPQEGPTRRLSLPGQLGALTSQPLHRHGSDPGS

Row | Compound | hERG current change (%, negative = inhibition) at 10uM [%]
1 | N#Cc1cccc(C(=O)OCC(=O)N2CCCc3ccccc32)c1 | -1.94
2 | O=C1Nc2ccccc2S/C1=C/Nc1cccc(Cl)c1 | -3.01
3 | O=C(Nc1cccc(N2CCCC2)c1)c1cccs1 | -2.81
4 | COc1ccc(-c2cc(-c3ccccc3)nc3ncnn23)cc1 | -56.4
5 | COc1ccc(OC)c(C(=O)NC(CC(N)=O)c2ccc(NCc3ccc(F)c(F)c3)c([N+](=O)[O-])c2)c1 (stereo not drawn) | -5.23
6 | CC(=O)N1CCC(=NNc2nc3ccccc3s2)CC1 | 4.41
7 | O=C(C1CCCCC1)N1CCC(c2nc3c(nnn3Cc3c(F)cccc3Cl)c(=O)[nH]2)CC1 | -6.61
8 | CCOC(=O)COc1ccc(S(=O)(=O)Nc2ccc3c(c2)OCO3)cc1 | -0.179
9 | CC(=O)c1ccc(N2CCc3ccccc3C2)c([N+](=O)[O-])c1 | -6.56
10 | COc1cc2c(cc1OC)C(c1ccc(Br)cc1)NCC2 (stereo not drawn) | -19.8
11 | COc1ccc([N+](=O)[O-])cc1NC(=O)c1ccco1 | 1.01
12 | Cc1nc2ccccn2c1-c1ccnc(=S)[nH]1 | 29
13 | Cn1cc(CC(=O)N2CCN(c3ccc(Cl)cc3)CC2)c2ccccc21 | -9.66
14 | O=c1oc2cccnc2n1CCS(=O)(=O)c1ccc(F)cc1 | 9.29
15 | Nc1nc(SCC(=O)Nc2ccc(Cl)cn2)n[nH]1 | 17.1
16 | Cc1cc(C)c(NC(=O)CN2CCC(NC(=O)NC3CCCCC3)CC2)c(C)c1 | 4.23
17 | CN1CCN(c2ccc([N+](=O)[O-])cc2C(=O)N2CCCCC2)CC1 | -7.66
18 | CN(C(=O)OC(C)(C)C)c1ccc(-c2nc3ccccc3s2)cc1 | 21.9
19 | COc1cccc(NC(=O)Nc2ccc(Br)cn2)c1 | 17.6
20 | Cc1c(Cl)c([N+](=O)[O-])nn1CC(=O)Nc1c(C)n(C)n(-c2ccccc2)c1=O | 2.53
21 | CCC(=O)Oc1ccc(C/C(=N\O)c2ccc(O)cc2O)o1 | -8.07
22 | COc1ccc(OC)c(S(=O)(=O)n2cnc3ccccc32)c1 | -5.26
23 | Cc1cc(C(=O)CCC(=O)N2CCN(c3ccccc3)CC2)c(C)s1 | -36.6

Row | Compound | hERG current change (%, negative = inhibition) at 10uM [%]
24 | COc1cc2ncnc(NCc3ccc(C)cc3)c2cc1OC | -0.937
25 | COC(=O)CSc1ncnc2c1cnn2-c1ccc(C)cc1C | 0.428
26 | CCc1ccc(CNC(=O)C(=O)NCC2CCCO2)cc1 (stereo not drawn) | 9.58
27 | O=C(NCCS(=O)(=O)N1CCN(c2cccc(Cl)c2)CC1)C1CCCC1 | -79
28 | COc1cc([N+](=O)[O-])cc2sc(NC(=O)c3c(F)cccc3F)nc12 | -8.06
29 | CCOc1ccc(NC(=S)N(CCCN2CCOCC2)Cc2cn(C)c3ccccc23)cc1 | -37.6
30 | Cc1ccc(NC(=O)CCSc2nc(C)cc(C)n2)cc1 | 9.91
31 | COc1ccc(S(=O)(=O)NCC(=O)N(CC(=O)NCc2ccco2)C2CCCC2)cc1 | 16.9
32 | COc1ccc(C2CC(=O)Nc3cc(OC)c(OC)cc32)cc1Br (stereo not drawn) | 11.9
33 | Cc1cccc(C)c1OC(=O)Cc1ccccc1[N+](=O)[O-] | -4.62
34 | O=C(c1cc(-c2cccs2)on1)N1CCCc2ccccc21 | -11.2
35 | COc1ccc(CC(=O)Nc2ccc3c(c2)CCC3)cc1OC | -7.09
36 | CCC1CCCCN1C(=O)COc1ccc2c3c(c(=O)oc2c1)CCC3 (stereo not drawn) | -17.7
37 | CN1/C(=C\C=C2/SC(=S)NC2=O)C(C)(C)c2ccccc21 | 3.39
38 | CCSc1nnc(Cn2c(=O)sc3ccccc32)n1-c1ccc(OC)cc1 | -10.3
39 | COc1cccc(-c2sc3ccc(OC)cc3c2-c2ccc(C(N)=O)cc2)c1 | 12.7
40 | Cc1cccc(-c2n[nH]c(=S)n2/N=C/c2ccco2)c1 | 2.87
41 | CCC1CCCCN1CCCNC(=O)c1ccc(N2CCCC2=O)cc1 (stereo not drawn) | -0.0254
42 | O=c1c2cccc(Cl)c2nc2n1Cc1ccccc1-2 | 4.04
43 | Cc1cc(C)c(C(=O)COC(=O)c2c(C)noc2C)cc1C | -10.5
44 | CCOc1ccc(S(=O)(=O)NCc2ccccc2Cl)cc1C(N)=O | 2.73
45 | CCOC(=O)c1nn(-c2ccccc2F)c2nc(-c3ccco3)c(C#N)c(=O)n12 | 9.1
46 | CCn1cc(S(=O)(=O)NCCc2ccc(OC)c(OC)c2)cn1 | -49.5

Row | Compound | hERG current change (%, negative = inhibition) at 10uM [%]
47 | NS(=O)(=O)c1cccc(NC(=O)Cn2cc(C(F)(F)F)cc(Cl)c2=O)c1 | 7.23
48 | CCOc1c(C)cc(-c2ncccc2O)cc1C.Cl | -5.17
49 | CC1CCN(C(=O)Cn2c(=O)n(-c3ccc(F)cc3)c(=O)c3sccc32)CC1 | 5.04
50 | Cc1cccc(N(C(=O)Cn2nnc3ccccc32)C(C(=O)NC(C)(C)C)c2ccsc2)c1 (stereo not drawn) | 13.4
51 | Nc1ccccc1SCc1ccccc1 | -2.24
52 | CCN(CC)C(=S)SCC(=O)NC12CC3CC(CC(C3)C1)C2 | -11.6
53 | O=C1C(=O)N(C/C=C/c2ccccc2)c2ccccc21 | 14.8
54 | COc1ccc(-n2nnnc2/C=C\Nc2ccc(C)cc2)cc1 | 16
55 | Cc1nn(-c2ccccc2)c2[nH]c(=O)c(CNc3ccc(N4CCOCC4)cc3)cc12 | -2.31
56 | COc1ccc(NC(=O)C2=NN(c3ccccc3)C(=O)CC2)cn1 | -20.6
57 | O=C(O)C1CCCN1C(=O)c1cncc(Br)c1 (stereo not drawn) | -0.387
58 | COc1cc2ccnc(Cc3cccc(OC)c3OC)c2cc1OC.Cl | -15
59 | COc1ccccc1C(=O)NCC(=O)NCCSc1ccc(Br)cc1 | -1.68
60 | CCCc1cc(=O)[nH]c(SCC(=O)N(C)CC(=O)Nc2ccc(F)cc2)n1 | 26
61 | O=C(CCCc1nc(-c2ccccc2)no1)NCc1cccnc1 | -18.9
62 | CCCCc1cc(=O)oc2cc(OCC(=O)N3CCc4ccccc43)ccc12 | 6.81
63 | Br.N#CCC(=O)NN1Cc2ccccc2C1=N | 4.63
64 | CCOC(=O)C1=C(O)/C(=C\c2ccc(O)c(OCC)c2)N=C1C | 8.17
65 | Cc1ccc(NC(=O)/C(=C\c2cccc([N+](=O)[O-])c2)NC(=O)c2cccs2)cc1 | -1.85
66 | COc1cc2c(cc1NC(=O)CCC(=O)O)oc1ccccc12 | 18.5
67 | COc1cc(/C=C2/S/C(=N/S(=O)(=O)c3ccccc3)NC2=O)c([N+](=O)[O-])cc1OC | 15.7
68 | COc1ccc(C(=O)N(CC2CCCO2)C(C(=O)NC2CCCC2)c2ccc(Cl)cc2)cc1OC (stereo not drawn) | -21.8
69 | CCC(=O)NC(=S)Nc1ccc(Cl)cn1 | 14.8

Row | Compound | hERG current change (%, negative = inhibition) at 10uM [%]
70 | CC(C)(C)c1ccc(C(=O)Nc2ccc(S(N)(=O)=O)cc2)cc1 | 8.19
71 | COc1ccc(CNCCc2ccc(Cl)cc2Cl)cc1 | -22.2
72 | C/C(Cn1cnc([N+](=O)[O-])n1)=N/NC(=O)COc1c(Cl)cc(Cl)cc1Cl | -31.4
73 | COc1ccc(NC(=O)NN2CCN(C)CC2)cc1 | 21.7
74 | COCCOC(=O)C1=C(C)NC(=O)NC1c1ccc(Cl)cc1 (stereo not drawn) | -4.48
75 | CCOc1ccc(C(=O)NCC(=O)OC(C)C(=O)NCc2ccco2)cc1OCC (stereo not drawn) | -5.53
76 | O=C(COc1ccc(Cl)cc1)Nc1cc(S(=O)(=O)N2CCCCC2)ccc1N1CCCCC1 | 14.6
77 | CCOC(=O)CCCn1ncn2c(cc3occc32)c1=O | -0.3
78 | O=C(Nc1c(C(=O)c2ccccc2)oc2ccccc12)c1cc(-c2ccccc2O)n[nH]1 | 9.34
79 | O=C(Nc1cccc(N2C(=O)C3CCCCC3C2=O)c1)c1ccccc1 (stereo not drawn) | 11.1
80 | COc1ccc(CC(=O)OCC(=O)NC2CC2)cc1 | 7.68
81 | Cc1n[nH]c(=O)n1-c1ccc(C(C)C)cc1 | 18.4
82 | Cc1sc2ncn(CC(=O)NCC(=O)N3CCN(c4ccccc4F)CC3)c(=O)c2c1C | -24.4
83 | COc1ccc(-c2nnc(SCCC(=O)O)n2C)cc1OC | -6.37
84 | CCN(CC(=O)Nc1cc(Cl)ccc1C)C(=O)c1ccc(=O)n(Cc2ccccc2)n1 | -9.4
85 | O=C1C2C3C=CC(C3)C2C(=O)N1CCN1CCN(Cc2ccc([N+](=O)[O-])cc2)CC1 (stereo not drawn) | -40.7
86 | CC(=O)Nc1ccc(OCC=C(Cl)Cl)cc1 | -9.09
87 | Cc1ccc(Sc2cnc3ccccc3n2)cc1 | -5.81
88 | Clc1cccc(-c2nc(NCCCN3CCOCC3)c3ccccc3n2)c1 | -10.1
89 | CCn1cc(/C=c2/sc3n(c2=O)C2c4ccccc4OC(C)(N=3)C2C(=O)OC)c(C)n1 (stereo not drawn) | -24.1
90 | CC1CCCN(C(=O)COC(=O)c2cc(-c3cccs3)nn2-c2ccccc2)C1 (stereo not drawn) | -28.9
